Source: article PMC12136788
The list shows a part of the results.

T1: UNK ZnF1-3 (human, UniProt Q9C0B0 31-174)
T1 sequence: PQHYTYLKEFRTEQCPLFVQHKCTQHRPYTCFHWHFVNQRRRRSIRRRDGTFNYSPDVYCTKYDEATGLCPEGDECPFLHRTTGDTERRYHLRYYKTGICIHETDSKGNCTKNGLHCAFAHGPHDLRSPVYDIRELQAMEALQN

B1: 46695667_46696168_2944_3pUTR_ENSG00000069329_ENST00000568784|human|control|control (ssRNA)
RNA: GGGAGUUCUACAGUCCGACGAUCUCAGAAUUUCUAUAAAAAGCUGCACUUGUAGAGAGGGGUCCAUGCACUGAUUUGCUAUUUUUAGAGCUUUUUUUAGGCACUCCAUUACCCUCUUGCCUCCGUGAAGCUCCUCCCCAUUUUCAACAGAGGAUUGAGCAUCA
B2: chr9:59188957:59188958:-_ENSMUSG00000025235_ENSMUST00000026265|mus_mus|motif|central (ssRNA)
RNA: GGGAGUUCUACAGUCCGACGAUCGGCCACCUGCUUGAGAUUAUCAGCACACUGUGGGCUGAGAACAGCACAUGUCUGAAAGAGUUCGGGGGAUUCUUGGAUAUUUCCUUCCAGGCGAAAAAUCAGUGCUUGGACAUAGAUAGCCAACAGAGGAUUGAGCAUCA
B3: chr2:44571066:44571067:-_ENSG00000138078_ENST00000409411|hu_hu|FALSE|FALSE (ssRNA)
RNA: GGGAGUUCUACAGUCCGACGAUCAACUCUGAUACAAUCAAUGAAGGGCUGGUCUAACUUAAGUUCCUCCAAAUUGAAUAAAACUUCAUAAUUAUCAUUGUCUGCUUCUUCAUCUUUGGAACGAACCAAGCAACAACCUUCUUGCAACAGAGGAUUGAGCAUCA
B4: chr6:114281168:114281169:-_ENSG00000196591_ENST00000368632|hu_hu|hu_hu_hu_mus_True|18_38 (ssRNA)
RNA: GGGAGUUCUACAGUCCGACGAUCUUCCAUUUUUCGGUAUAAACCAUAAUUUAGCAGCAAGUUAUGAGUCAUCCGGAUUCUAUGAGGCUUCAUGGGAUGACCCUGUCCAUAAUAAUAAUUUCCAAUAUCACCAUCAUAGUAGUACAACAGAGGAUUGAGCAUCA
B5: chr3:47755950:47755951:-_ENSG00000173473_ENST00000254480|hu_mus|FALSE|FALSE (ssRNA)
RNA: GGGAGUUCUACAGUCCGACGAUCAACCUUCCAGGGCUUUUCUGGGAUUGGUGCAUCUUCAAUUUCAGCAUCAACAUCAUUACUGUGGACCCAAGUGUCAUAGCUGUCUGGGUAGAAACCCCAGUGCACCAGCACCUGCUUGUCCAACAGAGGAUUGAGCAUCA
B6: chr14:66974463:66974464:+_ENSMUSG00000022044_ENSMUST00000074523|mus_hu|mus_mus_mus_hu_False|1_18 (ssRNA)
RNA: GGGAGUUCUACAGUCCGACGAUCUUGUAGGACGACUUAUUCAGGGGAUCGGCCAGGAAGCAGGAGCAGAACAAGGACACCAGCGGGAGCUCCUUCAUCUUCUCUUUGUAGGCAGCAAGAGUCAUGUUUCUGGGAUCCUGGUGGCAACAGAGGAUUGAGCAUCA
B7: chr17:60770872:60770873:+_ENSG00000011028_ENST00000303375|hu_hu|motif|central (ssRNA)
RNA: GGGAGUUCUACAGUCCGACGAUCUUGCUUUUCUUUUUUCCUUUUUUUUUAAAAACAAUAAUGGCACAUUUAAAAAAUCAACGGCAGAGAAAGGGCCAUGUCUUCGAGUCCAUGUUCACAUUGUCCCACGCUGUCGCACCAGGACAACAGAGGAUUGAGCAUCA
B8: chr18:9257185:9257186:+_ENSG00000101745_ENST00000400020|hu_mus|motif|central (ssRNA)
RNA: GGGAGUUCUACAGUCCGACGAUCUUGGAAAUGUUUUAUGGGCUCACAGAUAACUGAGGGCAUACUGCAUCUUCUAAUUUCGGCAGCAGGUCUUACCUCAUUAGUAAUUAGUUUAACAUCUUCCACAGAAGAUGACCUGAGAUGCAACAGAGGAUUGAGCAUCA
B9: chrX:71549762:71549763:+_ENSMUSG00000019087_ENSMUST00000019231|mus_mus|mus_mus_mus_hu_False|38_38 (ssRNA)
RNA: GGGAGUUCUACAGUCCGACGAUCAAACCCGUGUACUUCUUAUUGUUAGCACAACAUCACCAGAAAACGAUAACGACAGCCAAGCAGGACAGACAGUCAAGUAGUCUUUCCACACUCCCAAACUCAGGGAGCCCUAUAACCUUACAACAGAGGAUUGAGCAUCA
B10: 101904251_101904371_108_5pUTR_ENSMUSG00000058655_ENSMUST00000169681|mouse|control|control (ssRNA)
RNA: GGGAGUUCUACAGUCCGACGAUCGGAGAGAGAACGCAAAGGACCCGGAUGAGGCAGUCACGUGAUUAUAGCGGGCGCGACGGGCUUGGAGACGUGAAACCAGGAGGGGGCGGGGAGCCGAGGACGGAGGCAGAAGGCGGGGCGCAACAGAGGAUUGAGCAUCA
B11: chr5:67718940:67718941:+_ENSMUSG00000029221_ENSMUST00000113676|mus_hu|motif|central (ssRNA)
RNA: GGGAGUUCUACAGUCCGACGAUCGUAAAAGACUCAGUAUCUUCAUGGGGACUUCGUCGUCUGAUUUUUCGAAGUUGUUCGGGAUCACUGGAUUUGAGGCAGAACUCAUUUAUCGCUCUGACUCCAGUGAUGAAAUUAUUCUGACAACAGAGGAUUGAGCAUCA
B12: chr13:55803806:55803807:+_ENSMUSG00000045767_ENSMUST00000057844|mus_mus|FALSE|FALSE (ssRNA)
RNA: GGGAGUUCUACAGUCCGACGAUCUAUUUGUUUUGAUAACAAUAAUAAAUAAGGCAUGUUAAAAUAUCCUUUUAAGAAAAAAGUAAAACAAACUUACUUGAAUAGCACAUCAUUUUCUGACAAAGUUUUAAUAUAGAAUAGUGACAACAGAGGAUUGAGCAUCA
B13: chr1:150795811:150795812:-_ENSG00000143437_ENST00000358595|hu_mus|FALSE|FALSE (ssRNA)
RNA: GGGAGUUCUACAGUCCGACGAUCCCAUUCUCGGGUCUUAGAUCGGAAUCGGAACAUGACGGACAGCACCUGACCUUUUAAUUUCACCACCUGCUGAAAGCUGUCUCUUAGAAGUUGUUGGUCUUCAGGAUGACAAAAUUCUACCAACAGAGGAUUGAGCAUCA
B14: chr8:13019523:13019524:+_ENSMUSG00000031442_ENSMUST00000123811|mus_hu|FALSE|FALSE (ssRNA)
RNA: GGGAGUUCUACAGUCCGACGAUCGUGAAGAAUUGAGGCCAAAGUACCACAAAAAAUGGCCACGGGAUUGAUCCCUGCUUGAAAAAAUCCUAAAACUUGUAAAAGCUAAAGAGACCCCGUGCCCCGCUCUCCUCAGGCCGUUGGCAACAGAGGAUUGAGCAUCA

target: T1, UNK ZnF1-3; test: nsRBNS (natural sequence RNA bind-n-seq); RBNS binding buffer (assumed for nsRBNS): 25 mM Tris pH 7.5, 150 mM KCl, 3 mM MgCl2, 0.01% Triton X-100, 500 ug/ml BSA, 20 U/ml SUPERase-In, 4 C; UNK is unkempt and MSI1 is Musashi-1; names of the RNAs are library labels; protein concentration not given here; high values mean tight binding

With B1 as the binder, how does the binding signal read?
The binding signal was 0.807 enrichment R.

With B2 as the binder, how does the binding signal read?
The binding signal was 1.25 enrichment R.

For B3, which binding signal is on record?
Its binding signal is 0.693 enrichment R.

For B4, which binding signal is on record?
Its binding signal is 0.68 enrichment R.

How did the binding signal turn out when B5 was run?
Its binding signal is 0.983 enrichment R.

How did the binding signal turn out when B6 was run?
The binding signal was 1.95 enrichment R.

B7 was tested. Which binding signal did it give?
The binding signal was 0.902 enrichment R.

B8 was tested. Which binding signal did it give?
Its binding signal is 0.983 enrichment R.

Which binding signal does the source give for B9 here?
Its binding signal is 1.15 enrichment R.

For B10, which binding signal is on record?
The binding signal was 3.03 enrichment R.

For B11, which binding signal is on record?
Its binding signal is 0.452 enrichment R.

Which binding signal does the source give for B12 here?
The binding signal was 2.5 enrichment R.

B13 was tested. Which binding signal did it give?
The binding signal was 1.06 enrichment R.

Which binding signal does the source give for B14 here?
The binding signal was 1.46 enrichment R.
